Reference: PubChem BioAssay AID1508642 (National Center for Advancing Translational Sciences (NCATS), 2021)
Out of some 43,000 compounds screened, about 200 (0.47%) were called active. Inconclusive results (about 12%) are left out. Calls come from the whole dose curve; as a rule, active = well fitted cell-killing curve with a large enough effect; inconclusive = small, poorly fitted or top-dose-only effect, or effect the other way; inactive = flat fitted curve, though single readings scatter. This is one part of the list.

Assay: Cell viability qHTS assay in S16 Pmp22-F2sN cells; note: nearly all actives have a fitted effect of over 65% in size
Conditions: S16 Pmp22-F2sN Schwann cells viability, CellTiter-Glo, 24 h; series mostly up to 57.5 µM; activity change, negative = cytotoxicity: at the top concentration
Procedure, shortened: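 Viability was measured by CellTiter-Glo luminescence (15 min, room temperature). This followed 24 h at 37 °C of compound exposure (23 nL pin transfer) in S16 Pmp22-F2sN Schwann cells, 500-1,000 per well.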
% is set by controls: 0 for no effect and ±100 for the full control effect.

Compound | activity change, negative = cytotoxicity
CCn1c(C(=O)NCc2ccc(F)cc2)cc2oc3ccccc3c21 | inactive: 0.433%
CCOc1ccc(C(=O)NCc2ccc3c(c2)CCN3C(=O)c2ccc(Cl)cc2)cc1 | inactive: -1.97%
O=C(NC1CC(=O)N(c2cccc(F)c2)C1)c1cccs1 (configuration not stated) | inactive: 1.7%
Cc1cccc(-n2ncc(C(=O)N3CCOCC3)c2C2CCN(C(=O)OC(C)(C)C)CC2)c1 | inactive: 21.4%
CC(C)N(C(=O)Cn1cc(SCC(=O)Nc2ccccc2F)c2ccccc21)C(C)C | inactive: -3.05%
Cc1ccc(CCNS(=O)(=O)c2cc(-c3cc(C)no3)ccc2C)cc1 | inactive: -4.01%
CCc1ccc(NC(=O)c2ccc(CN3CC(=O)N4CCCCC4C3=O)cc2)cc1 (configuration not stated) | inactive: -24.3%
CC(C)C(=O)Nc1ccc2nc(SCC(=O)N3CCCC3)sc2c1 | inactive: 16.4%
CCCN(C(=O)c1cc2c(=O)oc3ccccc3c2s1)c1ccc(CC)cc1 | inactive: -0.412%
CCc1ccc(OCC(=O)NC(Cc2c[nH]c3ccccc23)C(=O)O)cc1 (configuration not stated) | inactive: -11%
Cc1c(Cl)cccc1NC(=O)N1CCN(C(=O)c2nsc3ccccc23)CC1 | inactive: -8.46%
Cc1ccccc1Nc1cc(C(=O)NCCCN2CCN(c3cccc(Cl)c3)CC2)c2ccccc2n1 | inactive: -23.2%
CCOCCCN(Cc1ccco1)S(=O)(=O)c1cc2c(cc1Cl)NC(=O)CO2 | inactive: 7.57%
COc1cc(NC(=O)CSc2nnc(C)n3c2cc2oc(C)cc23)cc(OC)c1 | inactive: -2.1%
Cc1ccccc1-c1noc(-c2ccc(N3CCCCC3)c([N+](=O)[O-])c2)n1 | inactive: 3.45%
CCOc1ccc(CCNC(=O)C2CCN(C(=O)N3CC(CC)Oc4ccccc43)CC2)cc1 (configuration not stated) | inactive: 5.84%
CCCCN(CC)CCCNC(=O)CS(=O)(=O)Cc1nc(-c2ccc(C)cc2)oc1C | inactive: -0.57%
CCCOc1ccc(C(=O)Nc2ccc3oc(-c4ccncc4)nc3c2)cc1 | inactive: 10.6%
O=C(Nc1nnc(N2CCCCCC2)s1)Nc1cc(F)ccc1F | inactive: -0.062%
CCC(Sc1nnc2c(n1)[nH]c1ccccc12)C(=O)Nc1nnc(C(C)C)s1 (configuration not stated) | inactive: 19%
CCCCOC(=O)c1c(N)n(-c2ccc(OC)cc2OC)c2nc3ccccc3nc12 | inactive: 15.6%
COCCN(Cc1cccs1)S(=O)(=O)c1cc(-c2cc(C)no2)ccc1C | inactive: -4.02%
Cn1nnc2c(N3CCN(c4cccc(Cl)c4)CC3)ncnc21 | inactive: 3.49%
COCCCNC(=O)c1c(NC(=O)Cc2coc3c(C)c(C)ccc23)sc2c1CCCC2 | inactive: -8.27%
COc1cccc(CNC(=O)CCS(=O)(=O)c2ccc3c(c2)oc(=O)n3C)c1 | inactive: -15.3%

Compound | activity change, negative = cytotoxicity
CCn1nc(C)c2c(-c3ccccc3)cc(=O)n(C(C)C(=O)NCCC(C)C)c21 (configuration not stated) | inactive: 0.963%
CC(C)c1ccc(Cn2c(COc3ccccc3)nc3ccccc32)cc1 | inactive: 1.5%
O=C(COc1ccccc1F)Nc1ccc2nc(SCCOc3ccccc3)sc2c1 | inactive: 8.57%
COc1ccc(NC(=O)CC2C(=O)N(c3cccc(OC)c3)C(=O)N2CCc2cccs2)cc1 (configuration not stated) | inactive: 2.41%
Cc1ccc(NC(=O)Cn2c(=O)n(Cc3nc(-c4ccccc4)no3)c(=O)c3cc4c(cc32)OCO4)cc1F | inactive: -1.53%
CC(=O)Nc1ccc(NC(=O)CCc2nc3cccnc3n2Cc2cccs2)cc1 | inactive: -5.15%
Cc1ccc(C(=O)Nc2ccc3c(c2)n(C)c(=O)c(=O)n3C)cc1 | inactive: -0.697%
CCc1ccc(OC(C)C(=O)N2CCC(c3nc4ccccc4o3)CC2)cc1 (configuration not stated) | inactive: -28.1%
Cc1ccc(NC(=O)Cn2nc(C(=O)Nc3ccc(C)cc3)ccc2=O)cc1 | inactive: -0.387%
CC1CCN(Cc2c(O)ccc3c(=O)c(Oc4ccccc4Cl)c(C(F)(F)F)oc23)CC1 | inactive: 17.2%
COc1cc(/C=C(\C#N)C(=O)NCC2CCCO2)ccc1O (configuration not stated) | inactive: 4.86%
CCc1ccccc1NC(=O)CSc1nc(-c2cccc(Cl)c2)nc2c1Cc1c(CO)cnc(C)c1O2 | inactive: -0.291%
O=C(Nc1cc(-c2nc3ccccc3o2)ccc1Cl)c1sc2c([N+](=O)[O-])cccc2c1Cl | inactive: -1.74%
COc1ccc(-c2nc(SCC(=O)NC3CCCC3)c(-c3ccc(F)cc3)[nH]2)cc1 | inactive: -22.1%
Cc1ccccc1C(=O)Nc1nnc(S(=O)(=O)N(C)Cc2ccccc2)s1 | inactive: -7.1%
COc1ccc(-n2c(-c3ccc(C)cc3)cc3c2CC(C)(C)CC3=O)cc1Cl | inactive: -29.6%
CC1CCN(C(=O)Cn2c(=O)n(CC3CCC(C(=O)NC(C)C)CC3)c(=O)c3sccc32)CC1 (configuration not stated) | inactive: 1.08%
O=C(NCCCN1CCCCC1)c1sc2ncccc2c1-n1cccc1 | inactive: 3.9%
COc1ccc(Cn2c(CCC(=O)Nc3cc(OC)c(OC)c(OC)c3)nc3cccnc32)cc1 | inactive: -12.8%
O=C(CSc1nccn1Cc1ccccc1)NCc1ccco1 | inactive: 4.23%
CCOc1ccccc1NC(=O)CN1C(=O)COc2ccc(S(=O)(=O)N3CCOCC3)cc21 | inactive: -0.945%
CCC(CC)C(=O)OCc1cc(=O)n2nc(C3CC3)sc2n1 | inactive: -5.89%
O=C(CCCn1c(=O)c2cccn2c2ccccc21)Nc1cc(C(F)(F)F)ccc1Cl | inactive: -0.0768%
Cn1cc(-c2cc3n(n2)CCC(=O)N3CCCC(=O)NCc2ccc(Cl)cc2)c2ccccc21 | inactive: 12.6%
CC1C(=O)Nc2ccc(S(=O)(=O)N3CCCCC3)cc2NC1=O (configuration not stated) | inactive: -14%

Compound | activity change, negative = cytotoxicity
Cc1cc(C)n(C(C)CC(=O)Nc2cccc(C(F)(F)F)c2)n1 (configuration not stated) | inactive: 1.78%
CCN(CC)c1ccc(NC(=O)C2CCN(c3nnc(-n4cccc4)s3)CC2)c(C)c1 | inactive: -20%
O=C(NCc1cccs1)c1ccc2c(=O)n3nc(Nc4ccccc4)sc3nc2c1 | inactive: 4.06%
Cc1ccc2c(c1Br)C(O)(CC(=O)c1ccc(F)cc1)C(=O)N2 (configuration not stated) | inactive: 0.744%
O=c1c2sc3ccccc3c2n(Cc2cccc(F)c2)c(=O)n1Cc1ccccc1 | inactive: 6.44%
CCOC(=O)Cn1c(=O)n(CC2CCCO2)c2nc(-c3ccccc3OC)nc(C(N)=O)c21 (configuration not stated) | inactive: -11.8%
O=C(NC1CC(=O)N(c2ccc(F)cc2)C1)c1ccc(S(=O)(=O)N2CCCCC2)cc1 (configuration not stated) | inactive: 0.614%
Cc1c(Cl)cccc1NC(=O)CC1Oc2ccccc2NC1=O (configuration not stated) | inactive: 4.78%
CCOc1ccccc1C(=O)N(Cc1ccco1)Cc1ccco1 | inactive: -6.49%
COc1ccccc1CNC(=O)C1CCCN(S(=O)(=O)c2ccc3c(c2)oc(=O)n3C)C1 (configuration not stated) | inactive: -0.862%
COc1ccc(-c2cc(C(=O)Nc3c(C(=O)c4ccc(C)cc4)oc4ccccc34)no2)cc1 | inactive: 2.05%
O=C(c1ccc2c(c1)N(Cc1ccccc1F)C(=O)c1ccccc1S2(=O)=O)N1CCC(Cc2ccccc2)CC1 | inactive: 27.2%
Cc1cccc2sc(N(Cc3cccnc3)C(=O)CCc3ccccc3)nc12 | inactive: -17.3%
Cc1ccc(-n2c(=O)c3oc4ccccc4c3n(CC(=O)Nc3ccc(F)c(Cl)c3)c2=O)cc1C | inactive: 15%
N#Cc1ccccc1NC(=O)C(=O)NCC(c1ccc2c(c1)OCO2)N1CCOCC1 (configuration not stated) | inactive: -0.757%
O=C(CS(=O)(=O)c1cccc2nsnc12)Nc1ccc(F)cc1F | inactive: 3.46%
CCC(C)NC(=O)Cc1ccc(NC(=O)N2CCCCc3ccccc32)cc1 (configuration not stated) | inactive: 3.92%
Cc1cc(C)cc(OCc2cc(=O)n3c4c(sc3n2)CCCC4)c1 | inactive: 0.755%
O=C(Nc1ccccc1F)C1CCN(S(=O)(=O)c2ccc3c(c2)CCCN3C(=O)C2CCC2)CC1 | inactive: 3.09%
CCCCN(C)C(=O)c1ccc2c(c1)N(Cc1ccc(F)cc1)C(=O)c1ccccc1S2(=O)=O | inactive: -6.81%
CC(C)CCNC(=O)c1c2c(nc3ccccc13)C(=O)N(C1CCCCC1)C2 | inactive: 9.84%
CC(=O)N1CCOc2cc(S(=O)(=O)Nc3c(C)cccc3C(C)C)c(Cl)cc21 | inactive: -7.56%
CCCCN(Cc1ccccc1)S(=O)(=O)c1cc(Br)cc2c1N(C(C)=O)CC2 | inactive: 0.248%
O=C(Nc1ccc(C(=O)OCc2cc(=O)n3nc(C4CC4)sc3n2)cc1)c1cccc(Cl)c1 | inactive: 18.4%
CCOC(=O)CCCN1C(=O)CCn2nc(-c3cn(C)c4ccccc34)cc21 | inactive: -1.04%

Compound | activity change, negative = cytotoxicity
CCOc1ccc(CCNC(=O)c2cccc(-n3c(C)nc4cccnc43)c2C)cc1 | inactive: 3.54%
CCCCCn1c(=O)[nH]c2cc(C(=O)N3CCN(c4cccc(OC)c4)CC3)ccc2c1=O | inactive: -4.86%
COc1ccc(-c2nc3c(c(SCC(=O)Nc4ccccc4OC)n2)Cc2cccc(C)c2O3)cc1 | inactive: 10.4%
CCOCCCNC(=O)c1cc(=O)[nH]c2ccc(S(=O)(=O)N3CCCC3)cc12 | inactive: 4.23%
CCOc1ccc(CNC(=O)c2cccn2-c2nnc(N3CCCCC3)s2)cc1OC | inactive: 26.2%
CCCCC(=O)Nc1c(C(=O)N2CCN(c3ccccc3)CC2)oc2ccccc12 | inactive: 4.18%
CCCSc1ncc(Cl)c(C(=O)Nc2scc(-c3ccc(C)cc3)c2C(=O)OCC)n1 | inactive: 12.4%
CCc1cccc(C)c1NC(=O)C1CCN(S(=O)(=O)c2cccc3nonc23)CC1 | inactive: 15.6%
O=C1CC(c2ccc(Cl)cc2)c2cc3c(cc2N1)OCCO3 (configuration not stated) | inactive: -7.32%
CC1(C(=O)NC2CCCCC2)Cc2ccccc2C(=O)N1Cc1ccc(F)cc1 (configuration not stated) | inactive: 9.47%
Cc1ccc(S(=O)(=O)c2nc(-c3ccco3)oc2SCc2ccc(F)cc2)cc1 | inactive: -27.7%
Cc1ccc(NC(=O)C2CCCN2S(=O)(=O)c2ccc3c(c2)C(C)(C)C(=O)N3C)cc1 (configuration not stated) | inactive: -0.995%
COc1ccc(-c2cc(C)no2)cc1S(=O)(=O)NC1CCC(C)CC1 (configuration not stated) | inactive: -14.6%
CCOc1ccc(NC(=O)c2cc(C)nc3c2c(C)nn3-c2cccc(F)c2)cc1 | inactive: 12.5%
O=C(NCCS(=O)(=O)N1CCN(c2ccccc2F)CC1)C1CC(=O)N(c2ccccc2)C1 (configuration not stated) | inactive: 1.74%
CCOc1ccc(CNC(=O)c2cnc3sc(N(CC)CC)nn3c2=O)cc1 | inactive: -0.417%
COc1cccc(NC(=O)c2c(N3CCCC3=O)c3cc(C)ccc3n2C)c1 | inactive: 15%
CCOc1ccc(-n2ccnc2SCC(=O)Nc2ccc3c(c2)OCO3)cc1 | inactive: -11.9%
O=C(CSc1nc2ccccc2nc1Cc1ccccc1)Nc1ccccc1C(F)(F)F | inactive: 4.64%
Cc1ccc(Sc2c(C)nn(C(=O)c3ccc(Br)cc3)c2C)cc1 | inactive: -1.6%
COc1ccc(Nc2ncnc3onc(C)c23)c(OC)c1 | inactive: -2.03%
COc1ccc(OC)c(NC(=O)Cn2c(=O)n(Cc3nc(C)no3)c(=O)c3ccccc32)c1 | inactive: -1.96%
